Growth inhibition call data for 30 compounds are collected here from the antibiotic and cytotoxicity screens of Wong et al. (2023).

This is one part of the list.

The assay concerns S. aureus RN4220. Briefly: growth inhibition call (relative growth <= 0.2). The note with it: 50 µM.
As for `COc1ccc(NC(=O)Nc2ccc3c(c2)C(=O)N([C@@H](C)CO)C[C@@H](C)[C@@H](CN(C)C(=O)Nc2ccc4c(c2)OCO4)OCCCC[C@@H](C)O3)cc1`, the growth inhibition call is “inactive”. The value for `CC(=O)N1C[C@@H](NC(=O)c2nccn2C)[C@@H]2OCCC[C@@H]21` was “inactive”. For `C[C@@H]1CN([C@H](C)CO)C(=O)CCCn2nncc2CO[C@@H]1CN(C)S(C)(=O)=O` the value was “inactive”. The value for `Cc1cc([N+](=O)[O-])nn1CC(=O)NC(C)C` was “inactive”. Regarding `COc1ccc2c3c([nH]c2c1)[C@@H](CO)N(C[C@]13CN(C1)C(=O)Cc1cccnc1)S(=O)(=O)c1ccc(cc1)C`, the growth inhibition call was “inactive”. For `C[C@H](CO)N1C[C@H](C)[C@H](CN(C)Cc2ccc(C(F)(F)F)cc2)Oc2ccc(NC(=O)Nc3ccc4c(c3)OCO4)cc2CC1=O` the value was “inactive”. For `COc1ccc(NC(=O)N(C)C[C@H]2Oc3ccc(NS(C)(=O)=O)cc3C(=O)N([C@@H](C)CO)C[C@@H]2C)cc1` the value was “inactive”; for `C[C@H](CO)N1C[C@H](C)[C@H](CN(C)S(=O)(=O)c2cn(C)cn2)Oc2ccc(NC(=O)C3CC3)cc2C1=O`, “inactive”; for `O=c1c(O[C@@H]2O[C@H](CO)[C@@H](O)[C@H](O)[C@H]2O)c(-c2ccc(O)cc2)oc2cc(O)cc(O)c12`, “inactive”. The value for `FC(F)(Cl)C(F)(F)Cl` was “inactive”. With `COc1ccccc1CNC(=O)C[C@H]1C[C@@H]2c3cc(NC(=O)C4CCOCC4)ccc3O[C@@H]2[C@H](CO)O1`, the growth inhibition call was “inactive”. On to `Cn1nc2c(c1N)CCC2`, for which the growth inhibition call is “inactive”. For `C[C@H]1CN([C@@H](C)CO)C(=O)c2cccc(NC(=O)C3CCCCC3)c2O[C@@H]1CN(C)C(=O)Nc1ccc(C(F)(F)F)cc1` the value was “inactive”.

Turning to `CCS(=O)(=O)Nc1ccc2c(c1)C(=O)N(C)[C@H]1CC[C@@H](CC(=O)NCCCN3CCOCC3)O[C@H]1CO2`, the growth inhibition call was “inactive”. For the compound `CC(C)=CCOc1cc(C)cc2oc(=O)cc(-c3ccccc3)c12`, the growth inhibition call is “inactive”. The value for `COC(=O)C[C@H]1CC[C@H]2[C@@H](COC[C@@H](O)CN2S(=O)(=O)c2ccc(F)cc2)O1` was “inactive”. As for `C[C@@H]1CN([C@H](C)CO)S(=O)(=O)c2ccc(C#Cc3ccccc3)cc2O[C@@H]1CN(C)C(=O)Cc1ccccn1`, the growth inhibition call was “inactive”.

Regarding `Cc1noc(C)c1NC(=O)Nc1cccc2c1O[C@@H](CN(C)Cc1ccc(Oc3ccccc3)cc1)[C@@H](C)CN([C@@H](C)CO)C2=O`, the growth inhibition call is “inactive”.

Turning to `Cc1noc(C)c1NC(=O)N[C@@H]1C=C[C@H](CC(=O)NCCCN(C)C)O[C@H]1CO`, the growth inhibition call was “inactive”.

For the compound `COc1ccc2c3c([nH]c2c1)[C@H](CO)N(C[C@]13CCN(CC1)C(=O)Nc1cccc(c1)F)C(=O)c1ccc(cc1)F`, the growth inhibition call was “inactive”.

As to `CNC[C@@H]1OCCCC[C@@H](C)Oc2ccc(NS(=O)(=O)c3c(C)noc3C)cc2C(=O)N([C@@H](C)CO)C[C@H]1C`, the growth inhibition call was “inactive”. Consider `CC(C)CC#Cc1ccc2c(c1)O[C@H](CN(C)S(=O)(=O)c1ccc(F)cc1)[C@H](C)CN([C@@H](C)CO)S2(=O)=O`, for which the growth inhibition call is “inactive”. For `Cc1ccc(S(=O)(=O)N(C)C[C@H]2OCCCC[C@H](C)Oc3ccc(NS(=O)(=O)c4ccc(Cl)cc4)cc3C(=O)N([C@@H](C)CO)C[C@@H]2C)cc1` the value was “inactive”; for `Cc1ccc(S(=O)(=O)N(C)C[C@@H]2Oc3c(NC(=O)Nc4ccc(C(F)(F)F)cc4)cccc3C(=O)N([C@@H](C)CO)C[C@@H]2C)cc1`, “inactive”; for `Cc1noc(C)c1S(=O)(=O)N(C)C[C@@H]1OCc2cn(nn2)CCCC(=O)N([C@@H](C)CO)C[C@H]1C`, “inactive”. For the compound `NC(CO)(CO)CO.O=C(c1ccccc1)c1ccc2n1CCC2C(=O)O` (stereo not given), the growth inhibition call is “inactive”. For `C[C@H](CO)N1C[C@H](C)[C@H](CN(C)C(=O)CCCN(C)C)OCCCC[C@H](C)Oc2ccc(NS(=O)(=O)c3cn(C)cn3)cc2C1=O` the value was “inactive”. The value for `COc1ccccc1NC(=O)N(C)C[C@H]1Oc2ncc(C#CC(C)C)cc2C(=O)N([C@@H](C)CO)C[C@@H]1C` was “inactive”; that for `C[C@@H]1CN([C@H](C)CO)C(=O)c2cc(NS(=O)(=O)c3ccccc3)ccc2O[C@@H](C)CCCCO[C@@H]1CN(C)C(=O)C1CCCCC1` was “inactive”. For `C[C@@H]1CN([C@@H](C)CO)C(=O)Cc2cc(NC(=O)Cc3cn(C)c4ccccc34)ccc2O[C@@H]1CN(C)CC1CCCCC1` the value was “inactive”.
